# From PubChem BioAssay AID1768 (National Center for Advancing Translational Sciences (NCATS), 2009)
# Several values for one entry are separate records, joined by “and”; a condition that tells them apart may be missing. Equal values may be shown once. Screen size: about 270,000 compounds; about 620 (0.23%) were called active. Inconclusive means that the source gave no clear call. Such entries were picked first, then a sample of the others. Calls come from the whole dose curve; as a rule, active = well fitted inhibition curve with a large enough effect in the polarisation, with a control signal flat (not every such curve was filed as active); inconclusive = small, poorly fitted or top-dose-only effect, or effect the other way, or a change in a side signal; inactive = no such curve, though single readings can be large or run the other way; the % refers to the polarisation. A potency beside an inconclusive call is a rough fit, not a confirmed value. “Side channel” marks fits to a control or component signal instead of the main read-out.
# Biological target: Menin (Homo sapiens) (UniProt O00255)
# UniProt O00255, sequence (O00255 whole entry, looked up): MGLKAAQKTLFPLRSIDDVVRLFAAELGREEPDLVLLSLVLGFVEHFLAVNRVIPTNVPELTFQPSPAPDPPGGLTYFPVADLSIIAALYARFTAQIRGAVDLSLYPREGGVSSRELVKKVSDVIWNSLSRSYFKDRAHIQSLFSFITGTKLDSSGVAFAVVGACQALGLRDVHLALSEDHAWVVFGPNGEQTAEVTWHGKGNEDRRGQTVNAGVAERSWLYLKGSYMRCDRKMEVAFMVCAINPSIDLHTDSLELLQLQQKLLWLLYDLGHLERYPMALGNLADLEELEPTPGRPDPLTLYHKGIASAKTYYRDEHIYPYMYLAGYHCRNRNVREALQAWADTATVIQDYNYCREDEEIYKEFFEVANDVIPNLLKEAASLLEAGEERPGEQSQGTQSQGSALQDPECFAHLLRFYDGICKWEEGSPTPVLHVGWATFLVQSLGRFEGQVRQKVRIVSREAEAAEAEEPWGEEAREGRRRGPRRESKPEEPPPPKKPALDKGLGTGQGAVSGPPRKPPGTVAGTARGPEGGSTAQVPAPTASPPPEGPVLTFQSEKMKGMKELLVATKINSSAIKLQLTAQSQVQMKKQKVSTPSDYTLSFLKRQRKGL
# Assay: qHTS Assay for Inhibitors Targeting the Menin-MLL Interaction in MLL Related Leukemias: Competition With Texas Red Labeled MLL-derived Mutant Peptide
# Details: fluorescence polarization; series mostly up to 61.6 µM
# Potency is the fitted concentration of half-maximal effect; tags give direction and shape of the fitted curve or compound fluorescence and quenching.
row,Structure (SMILES),Potency
1,C[C@H]1COC2=C1C(=O)C(=O)c1c2ccc2c1CCCC2(C)C,"inconclusive: 14.1 µM [quencher, side channel, partial curve] and inconclusive: 31.6 µM [quencher, side channel, single point]"
2,NC(=O)c1cn(C2CCCCC2)c2ccccc2c1=O,"inconclusive: 3.98 µM [inhibitor, partial curve]"
3,O=c1[nH]c(=O)n(CCc2ccccc2)c(O)c1C=NCc1ccc2c(c1)OCO2,"inconclusive: 31.6 µM [fluorescent, side channel, single point]"
4,CC(C)Cn1cc(C(=O)N2CCC3(CC2)OCCO3)c2c3ccccc3n(C)c2c1=O,inactive
5,CCN(CC)C(=O)c1c(C)[nH]c(=S)c(C#N)c1-c1ccco1,"inconclusive: 11.2 µM [inhibitor, partial curve, poor fit]"
6,CCCCC/C=C\C/C=C\C/C=C\C/C=C\CCCC(=O)NC1CC1,"inconclusive: 39.8 µM [inhibitor, single point]"
7,O=c1[nH]c(=O)n(Cc2ccco2)c(O)c1C=NCc1ccco1,inactive
8,COc1cc(CN2CC=C(c3ccc(F)cc3)CC2)cc(OC)c1,"inconclusive: 35.5 µM [inhibitor, single point]"
9,O=C(C1CCN(Cc2ccccc2)CC1)N1CCCC1,"inconclusive: 35.5 µM [inhibitor, partial curve, poor fit]"
10,CCCCC/C=C\C/C=C\C/C=C\C/C=C\CCCC(=O)NCC(=O)O,"inconclusive: 3.55 µM [quencher, side channel, partial curve]"
11,Oc1ccc(Cl)cc1Cc1cc(Cl)ccc1O,"inconclusive: 11.2 µM [quencher, side channel, partial curve] and inconclusive: 28.2 µM [quencher, side channel, partial curve] and inconclusive: 3.16 µM [quencher, side channel, partial curve]"
12,Cc1ccc(C(O)P(=O)(OCCC(C)C)c2ccc(N(C)C)cc2)cc1 (stereo not drawn),"inconclusive: 3.98 µM [inhibitor, full curve]"
13,CCN(CC)S(=O)(=O)c1ccc(C)c(NCC(=O)Nc2ccc(C#N)c(Cl)c2)c1,"inconclusive: 8.91 µM [quencher, side channel, partial curve]"
14,O=C1CC(c2cccnc2)=NN1c1ccc(Cl)cc1Cl,"inconclusive: 39.8 µM [quencher, side channel, single point]"
15,CC(C)[C@H](CO)Nc1nc(Nc2cccc(Cl)c2)c2ncn(C(C)C)c2n1,"inconclusive: 12.6 µM [quencher, side channel, partial curve]"
16,COc1cccc(-n2c(/C=C/c3ccc(O)c(O)c3)nc3ccccc3c2=O)c1,"inconclusive: 17.8 µM [quencher, side channel, partial curve]"
17,CN(C)CCC=C1c2ccccc2CCc2ccccc21,"inconclusive: 7.08 µM [fluorescent, side channel, partial curve]"
18,CC(=O)c1ccc2c(c1)C1C(Cl)C(Sc3ccccc3[N+](=O)[O-])CC1C(c1ccccc1[N+](=O)[O-])N2 (stereo not drawn),"inconclusive: 3.55 µM [quencher, side channel, full curve]"
19,O=C1CC2OCC=C3CN4CCC56c7cc([N+](=O)[O-])ccc7N1C5C2C3CC46 (stereo not drawn),"inconclusive: 10 µM [inhibitor, partial curve]"
20,Cc1ccccc1N1C(=O)/C(=C/c2ccco2)C(=O)NC1=S,"inconclusive: 3.98 µM [quencher, side channel, full curve]"
21,CN1CCN(C(=O)COc2ccc3ccccc3c2)CC1,inactive
22,OC(c1ccccc1)(c1ccccc1)C1CCNCC1,"inconclusive: 8.91 µM [inhibitor, partial curve, poor fit]"
23,CCOC(=O)N1C(C)CN(/[N+]([O-])=N/Oc2ccc([N+](=O)[O-])cc2[N+](=O)[O-])CC1C (stereo not drawn),"inconclusive: 22.4 µM [quencher, side channel, partial curve]"
24,CCCOP(=O)(c1ccc(N(C)C)cc1)C(O)c1ccc(Cl)cc1Cl (stereo not drawn),"inconclusive: 3.98 µM [fluorescent, side channel, full curve, poor fit]"
25,COc1ccccc1N1C(=O)NC(=O)/C(=C\c2cnn(-c3ccccc3)c2)C1=O,"inconclusive: 31.6 µM [quencher, side channel, single point]"
26,O=C(N/N=C/c1c(O)n(C2CC2)c(=S)[nH]c1=O)c1ccccc1,"inconclusive: 28.2 µM [quencher, single point]"
27,Cc1ccc(N2C(=O)NC(=O)/C(=C/c3cnc(-c4ccccc4)nc3)C2=O)cc1C,inactive

row,Structure (SMILES),Potency
1,CCc1ccc(-n2c(O)c(/C=N/NC(=O)c3ccncc3)c(=O)[nH]c2=O)cc1,"inconclusive: 25.1 µM [quencher, side channel, single point]"
2,O=C(c1ccccc1)c1ccc(N=Nc2c(O)[nH]c(=O)[nH]c2=O)cc1,"inconclusive: 14.1 µM [quencher, side channel, partial curve]"
3,CCC(NC(=O)OC(C)(C)C)C(=O)Oc1cc(C)cc2oc(=O)c3c(c12)CCC3 (stereo not drawn),"inconclusive: 7.94 µM [fluorescent, side channel, partial curve]"
4,CN1C[C@@H](C(=O)N[C@@]2(C)O[C@]3(O)C4CCCN4C(=O)[C@@H](Cc4ccccc4)N3C2=O)C=C2c3cccc4[nH]cc(c34)C[C@@H]21 (stereo partly drawn),"inconclusive: 35.5 µM [inhibitor, partial curve]"
5,CC(=O)Nc1ccc(C(=O)C(Cc2ccccc2)N(C)C)cc1 (stereo not drawn),"inconclusive: 25.1 µM [quencher, side channel, partial curve]"
6,Cc1ccc(C2=NCC(=O)N(CC(=O)N3CCCCC3)c3sc(C)c(C)c32)cc1,"inconclusive: 2.24 µM [fluorescent, side channel, full curve]"
7,COc1ccc(N2C(=O)NC(=O)/C(=C\c3ccc([N+](=O)[O-])s3)C2=O)cc1,"inconclusive: 25.1 µM [fluorescent, side channel, partial curve]"
8,C=CCSC1=N/C(=C\c2cc(OC)c3c(c2)OCO3)C(=O)S1,"inconclusive: 2.24 µM [quencher, side channel, full curve]"
9,N#C/C(=C\c1ccc(O)c(O)c1)C(N)=S,"inconclusive: 10 µM [quencher, side channel, partial curve]"
10,C[N+]1(C)C2CCC1CC(OC(=O)c1c[nH]c3ccccc13)C2 (stereo not drawn),"inconclusive: 17.8 µM [fluorescent, side channel, partial curve]"
11,Cc1cccnc1-n1c(-c2ccccc2)nc2ccccc2c1=O,"inconclusive: 35.5 µM [fluorescent, side channel, single point]"
12,Cc1ccc2[nH]c(C)c(CCNC(=O)c3cc4cc([N+](=O)[O-])ccc4oc3=O)c2c1,"inconclusive: 14.1 µM [quencher, side channel, partial curve]"
13,C=CCn1c(CSc2ccccc2[N+](=O)[O-])n[nH]c1=S,"inconclusive: 11.2 µM [quencher, side channel, partial curve]"
14,COCCCn1c(-c2ccc(OC)cc2)cc(C(=O)NC2CCCCCCC2)c1C,"inconclusive: 2.24 µM [fluorescent, side channel, partial curve]"
15,CN(C)c1ccc(C=C2C(=O)NC(=O)NC2=O)cc1[N+](=O)[O-],inactive
16,c1ccc2sc(C3(N4CCCCC4)CCCCC3)cc2c1,"inconclusive: 10 µM [fluorescent, side channel, partial curve]"
17,CCOP(=O)(OCC)c1nc(-c2cccc3ccccc23)oc1N1CCOCC1,"inconclusive: 14.1 µM [fluorescent, side channel, single point]"
18,CC(O)C(C)OC(=O)[C@@H]1C[C@@H]2c3cccc4c3c(cn4C(C)C)C[C@H]2N(C)C1 (stereo partly drawn),"inconclusive: 17.8 µM [fluorescent, side channel, partial curve]"
19,O=C1NC(=O)N(Cc2ccccc2)C(=O)/C1=C\C=C\c1ccco1,"inconclusive: 12.6 µM [fluorescent, side channel, partial curve]"
20,O=C(COc1ccccc1)c1cn(Cc2ccccc2)c2ccccc12,"inconclusive: 39.8 µM [fluorescent, side channel, single point]"
21,COc1cccc(CC(=O)N(C)C2CCCN(Cc3ccccc3F)C2)c1 (stereo not drawn),"inconclusive: 12.6 µM [inhibitor, partial curve]"
22,CCCCNC(=S)N(CCN(CC)CC)Cc1cc2cc3c(cc2[nH]c1=O)OCO3,"inconclusive: 35.5 µM [inhibitor, partial curve]"
23,COc1ccc(-c2nn(CCC#N)cc2C(=O)Nc2ccc(C(C)=O)cc2)cc1[N+](=O)[O-],"inconclusive: 35.5 µM [quencher, side channel, single point]"
24,C=CCn1c(O)c(C=NCCCOc2ccc(CC)cc2)c(=O)[nH]c1=S,"inconclusive: 39.8 µM [fluorescent, side channel, single point]"
25,O=C1NC(=O)N(c2cccc(Cl)c2)C(=O)/C1=C\c1ccc(Sc2nc3ccccc3[nH]2)o1,"inconclusive: 10 µM [fluorescent, side channel, partial curve]"
26,O=C1C(Cl)=C(Cl)C(=O)C(Cl)=C1Cl,"inconclusive: 10 µM [quencher, side channel, partial curve]"
